From the supplement of paper PMC9334596
Values joined by “and” are separate entries in the source; they are usually repeats but may differ in a detail not shown here. Equal entries are not always repeated. The full ranking holds about 5,300 compounds; the median of “PER2::LUC luminescence relative to vehicle control” is about 0.96, and the highest 2% start at about 1.3. The list shows a part of the results.

Tested on: mPer2Luc MEF
Assay: PER2::LUC luminescence relative to vehicle control (fold of vehicle); higher = higher PER2::LUC reporter signal
Conditions: 10 µM
Summary of the method: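 The reported values are PER2::LUC luminescence as fold of vehicle control in mouse embryonic fibroblasts carrying the mPer2Luc reporter. Cells were seeded at ~3000 per well in 384-well plates in DMEM with 10% FBS at 37 °C and 5% CO2, and compounds were added at 10 μM 48 h later. ONE-Glo luminescence was read 24 h and 30 h after treatment.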

Structure (SMILES)	PER2::LUC luminescence (time after treatment 24 h)	PER2::LUC luminescence (time after treatment 30 h)
C=CC(C1=CC(=O)C(OC)=CC1=O)c1ccc(O)cc1 (stereo unspecified)	0.816	0.863
Nc1ccn([C@@H]2O[C@H](CO)[C@@H](O)[C@H]2O)c(=O)n1	0.993	0.904
O=C(O)/C=C/C=C/c1ccc2c(c1)OCO2	1.07	1.03
CC(C)NCCCn1c(Sc2cc3c(cc2I)OCO3)nc2c(N)ncnc21	0.108	0.054
CC(C)CCC[C@@H](C)[C@H]1CC[C@H]2[C@@H]3CC=C4C[C@@H](O)CC[C@]4(C)[C@H]3CC[C@]12C	0.926	0.923
Nc1nccc2c1ncn2[C@@H]1O[C@H](CO)[C@@H](O)[C@H]1O	0.924	0.982
N[C@@H](Cc1ccc(F)cc1)C(=O)O	0.979	0.832
COc1ccc(-n2nc(CCC(=O)N(C)O)cc2-c2ccc(Cl)cc2)cc1	0.853	0.925
O=C(O)[C@@H]1C[C@H](CP(=O)(O)O)CCN1	1.03	0.992
O=P(O)(O)C(O)(Cc1cccnc1)P(=O)(O)O	0.689 and 0.717	0.977 and 0.717
CCCCC#Cc1nc(NC)c2ncn([C@@H]3O[C@H](CO)[C@@H](O)[C@H]3O)c2n1	0.992	1.01
O=C(O)c1cc(O)c(O)c(O)c1	0.88	1.04
CCN(CC)C(=O)N1CCN(C)CC1	1.12	0.953
CC(C)(C)C(O)/C=C/c1ccc2c(c1)OCO2 (stereo unspecified)	0.981	0.941
C[C@H]1CC[C@@H](C(C)(C)O)CC2=C1CC[C@@H]2C	1.46	1.05
CC[C@]1(O)C[C@@H]2CN(CCc3c([nH]c4ccccc34)[C@@](C(=O)OC)(c3cc4c(cc3OC)N(C)[C@H]3[C@@](O)(C(=O)OC)[C@H](OC(C)=O)[C@]5(CC)C=CCN6CC[C@]43[C@@H]65)C2)C1	0.0879	0.136
CC(CCc1ccc(O)cc1)NCC(O)c1ccc(O)cc1 (stereo unspecified)	0.808	0.821
CC(=O)[C@H]1CC[C@H]2[C@@H]3CC=C4C[C@@H](OC(=O)CCC(=O)O)CC[C@]4(C)[C@H]3CC[C@]12C	1.01	0.948
COc1cc2c(cc1OC)CN(CCc1ccc(NC(=O)c3cccc4c(=O)c5cccc(OC)c5[nH]c34)cc1)CC2	0.792	0.772
CCCCC(CC)COC(=O)c1ccccc1O (stereo unspecified)	1.07	1.63
Cc1c(C)c2c(c(C)c1O)CC[C@@](C)(CCC[C@H](C)CCC[C@H](C)CCCC(C)C)O2	1.05	0.9
CCN(CCCc1ccccc1)CCCc1ccccc1	0.946	0.739

Structure (SMILES)	PER2::LUC luminescence (time after treatment 24 h)	PER2::LUC luminescence (time after treatment 30 h)
COc1cc2c(cc1OC)[C@H]1[C@@H](C)c3ccc(OC)c(OC)c3CN1CC2	0.954	0.973
NC(=O)NO	0.956	0.989
Clc1ccccc1C(c1ccccc1)(c1ccccc1)n1ccnc1	0.786	0.863
Clc1ccc(COC(Cn2ccnc2)c2ccc(Cl)cc2Cl)cc1 (stereo unspecified)	1.26 and 1.03	1.35 and 1.25
C[C@H](CCC(=O)NCC(=O)O)[C@H]1CC[C@H]2[C@@H]3[C@H](O)C[C@@H]4C[C@H](O)CC[C@]4(C)[C@H]3C[C@H](O)[C@]12C	1.05 and 0.939	0.96 and 0.907
COc1cc(CC(=O)O)ccc1O	0.99	0.874
Cc1cc(CC(C)CC(C)(C)C)n(O)c(=O)c1 (stereo unspecified)	0.536	0.588
COc1c(OC)c2occc2c2oc(=O)ccc12	0.851	0.811
CC(C)=CCC/C(C)=C/COc1ccc2ccc(=O)oc2c1	0.946	1.02
CC(C)(C)c1ccc(S(=O)(=O)NCc2ccc(C(=O)Nc3cccnc3)cc2)cc1	0.867	0.466
CO[C@H]1C(=O)[C@]2(C)[C@@H](OC)C[C@H]3OC[C@@]3(OC(C)=O)[C@H]2[C@H](OC(=O)c2ccccc2)[C@]2(O)C[C@H](OC(=O)[C@H](O)[C@@H](NC(=O)OC(C)(C)C)c3ccccc3)C(C)=C1C2(C)C	0.507 and 0.433	0.471 and 0.433
CCCC(C(=O)OCCN(CC)CC)(c1ccccc1)c1ccccc1	0.938 and 0.777 and 0.861	0.911 and 0.962 and 0.855
Cc1ccc(CN2CCNCC2)cc1NC(=O)CNc1ccc(F)c(F)c1	0.875	0.886
CCC1=C[C@H]2CN(C1)Cc1c([nH]c3ccccc13)[C@@](C(=O)OC)(c1cc3c(cc1OC)N(C)[C@H]1[C@@](O)(C(=O)OC)[C@H](OC(C)=O)[C@]4(CC)C=CCN5CC[C@]31[C@@H]54)C2	0.279	0.324
CN1CCC[C@H]1c1cccnc1	1.03 and 1.21	0.975 and 1.06
O=S(=O)(O)CCSSCCS(=O)(=O)O	1.14	1.2
C[C@]12CC[C@H](O)CC1=CC[C@@H]1[C@@H]2CC[C@]2(C)C(n3cnc4ccccc43)=CC[C@@H]12	1.08 and 1.07	0.969 and 1.07
NC[C@@H]1CC[C@@H](N)[C@@H](O[C@H]2[C@H](O)[C@@H](O[C@H]3O[C@H](CO)[C@@H](O)[C@H](N)[C@H]3O)[C@H](N)C[C@@H]2N)O1	1.04	1.07
NC(=O)c1cccc(NC(=O)/C=C/c2c[nH]c3ccccc23)c1	1.08	1.06
CCCCCC#CCC#CCC#CCC#CCCCC(=O)O	1.04	1.02
O=C(O)c1cc(=O)c2cc(Cl)ccc2[nH]1	0.977	0.883
